# Screen size: about 310,000 compounds; about 14,000 (4.5%) showed an effect of 50% or more. The effect is printed as a negative number. Some of the results follow.
# Molecular target: human ether-à-go-go-related gene (hERG) potassium channel (human, UniProt Q12809)
# Assay: primary screen, population patch clamp on CHO cells stably expressing hERG
# 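Further: peak tail current of the secondary pulse compared with the same well before compound.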
# Chain of human ether-à-go-go-related gene (hERG) potassium channel (Q12809 whole entry, looked up): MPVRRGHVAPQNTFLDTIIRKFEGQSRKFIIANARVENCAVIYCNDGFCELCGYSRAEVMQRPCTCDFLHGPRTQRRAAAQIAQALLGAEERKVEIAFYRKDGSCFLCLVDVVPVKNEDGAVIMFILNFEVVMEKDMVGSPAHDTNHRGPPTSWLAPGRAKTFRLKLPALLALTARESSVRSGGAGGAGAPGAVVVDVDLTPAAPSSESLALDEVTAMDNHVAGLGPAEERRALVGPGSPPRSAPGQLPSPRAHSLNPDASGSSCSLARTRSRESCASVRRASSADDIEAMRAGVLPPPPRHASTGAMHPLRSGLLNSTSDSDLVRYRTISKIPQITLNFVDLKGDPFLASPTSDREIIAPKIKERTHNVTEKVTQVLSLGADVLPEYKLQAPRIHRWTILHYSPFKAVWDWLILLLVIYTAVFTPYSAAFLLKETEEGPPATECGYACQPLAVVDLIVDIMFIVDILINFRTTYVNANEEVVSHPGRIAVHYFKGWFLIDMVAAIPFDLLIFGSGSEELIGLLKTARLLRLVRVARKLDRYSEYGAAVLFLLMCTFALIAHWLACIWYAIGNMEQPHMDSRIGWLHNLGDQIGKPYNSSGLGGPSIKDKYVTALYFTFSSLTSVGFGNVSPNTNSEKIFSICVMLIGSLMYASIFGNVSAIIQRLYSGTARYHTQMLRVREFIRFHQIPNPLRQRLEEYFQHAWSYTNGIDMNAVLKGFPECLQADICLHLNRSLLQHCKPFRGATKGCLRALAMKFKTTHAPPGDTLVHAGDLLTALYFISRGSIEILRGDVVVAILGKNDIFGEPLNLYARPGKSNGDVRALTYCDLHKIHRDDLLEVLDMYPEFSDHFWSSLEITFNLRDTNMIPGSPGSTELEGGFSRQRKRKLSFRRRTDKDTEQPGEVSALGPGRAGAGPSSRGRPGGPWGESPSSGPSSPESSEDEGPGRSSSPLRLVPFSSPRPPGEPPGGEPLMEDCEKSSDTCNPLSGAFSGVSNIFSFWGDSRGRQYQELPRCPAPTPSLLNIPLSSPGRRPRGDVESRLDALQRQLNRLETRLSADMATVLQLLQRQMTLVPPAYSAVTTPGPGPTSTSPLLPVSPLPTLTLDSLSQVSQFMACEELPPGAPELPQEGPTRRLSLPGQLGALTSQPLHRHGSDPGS
row,SMILES,"hERG current change (%, negative = inhibition) at 10uM [%]"
1,Cc1ccc(C2C3=C(CCCC3=O)Nc3c2c(C)nn3-c2ccccn2)o1 (stereo not shown),1.07
2,CCOc1ccc(N2CC(C(=O)N3CCc4ccccc4C3)CC2=O)cc1 (stereo not shown),-75
3,Cn1nc(-c2ccc(Cl)cc2)c2cc(C(=O)NC3CC3)sc21,-1.54
4,CN(C(=O)/C=C/c1ccc(F)cc1)C1CCCCC1,-22.6
5,COc1ccc(CCN=Cc2ccc(O)cc2)cc1OC,19
6,COc1ccccc1NC(=O)N1CCC(NC(=O)C2CCCCC2)CC1,5.27
7,NS(=O)(=O)c1ccc(NC(=O)COC(=O)COc2ccc(Br)cc2)cc1,9.21
8,CCN(CC(=O)Nc1ccc(OC)cc1)C(=O)c1cc(S(=O)(=O)N2CCOCC2)ccc1N1CCCC1,-13.2
9,COc1cc(-c2nnc(SCC(=O)NC3CCS(=O)(=O)C3)o2)cc(OC)c1OC (stereo not shown),12.7
10,Cc1ccc2oc(=O)c3cnn(CC(=O)N4CCCc5ccccc54)c3c2c1,-1.98
11,COc1ccc2[nH]c(=O)c(CN(Cc3ccc4c(c3)OCO4)C(C)=O)cc2c1,-14.8
12,NC(=O)CSc1nnc(-c2cnccn2)n1-c1ccccc1,4.66
13,Cc1c(O)c(CN2CCCCC2)cc2c1oc(=O)c1ccccc12,7.11
14,O=C1NC2=C(CCc3ccccc32)C(c2ccc(Br)cc2)N1 (stereo not shown),-56.3
15,Cc1sc2ncnc(SCC(=O)NNC(=O)COc3cccc4ccccc34)c2c1C,3.43
16,CCOc1ccc(NC(=S)N2CCN(S(=O)(=O)c3ccccc3)CC2)cc1,-31.6
17,CC(=O)NC(=S)Nc1ccc(N2CCOCC2)c(S(=O)(=O)Nc2cc(Cl)ccc2Cl)c1,16
18,COc1ccc(OC)c(NC(=O)c2c(NC(=O)CCC(=O)O)sc3c2CCCCC3)c1,18.2
19,COc1cccc(OC)c1OCCCCN1CCC(Cc2ccccc2)CC1.O=C(O)C(=O)O,-81.9
20,COc1ccccc1Nc1nc(-c2sc(N)nc2C)cs1,6.95
21,COCCCNC(=O)c1cc(-c2cccnc2)nc2ccccc12,16.6
22,O=[N+]([O-])c1ccccc1/C=N/n1c(C(F)(F)F)n[nH]c1=S,11

row,SMILES,"hERG current change (%, negative = inhibition) at 10uM [%]"
1,Cn1cc(/C=C/C(=O)N2CCCC(C(=O)c3ccc(C(F)(F)F)cc3)C2)cn1 (stereo not shown),-15.9
2,CC(C)(C)OC(=O)N1CCC(CC2CC(c3cccc(Br)c3)=NO2)(C(=O)O)CC1 (stereo not shown),4.19
3,CCCNC(=O)c1ccc(COc2ccc(CCC)cc2OC)o1,-38.6
4,C(#CCN1CCC(Cc2ccccc2)CC1)COCCOCc1ccccc1,-11.2
5,COC(=O)c1cn(CC(=O)Nc2ccc(OC)cc2)c2ccccc12,8.2
6,O=C(O)CNC(=O)c1ccc(NC(=O)/C(=C/c2ccccc2)NC(=O)c2ccccc2)cc1,31.5
7,CNC(=O)COC(=O)c1ccccc1Oc1ccccc1,-5.63
8,O=C(NC1CCCCC1)c1cccnc1Sc1ccccc1,22.6
9,COc1cc(NC(=O)c2ccc3c(c2)OCCO3)ccc1NC(=O)c1ccco1,18.3
10,CC(C)CNC(=O)C(=O)NCC1OCCCN1S(=O)(=O)c1cccs1 (stereo not shown),6.9
11,CCn1ncc(S(=O)(=O)Nc2cc(Cl)ccc2C)c1C,-5.15
12,CN1C(=O)c2ccc(NC(=O)c3ccc(Cl)cc3Cl)cc2C1=O,3.42
13,O=C(CN1CCOc2ccccc21)NCc1ccc(Cl)cc1,-11.7
14,Cc1ccc(OCCC(=O)OCC(=O)N2c3ccccc3NC(=O)C2(C)C)cc1,-22.5
15,COc1ccc(OC)c(S(=O)(=O)Nc2cccc3ccccc23)c1,24.2
16,COc1ccc(-c2nc3ccccc3s2)cc1NC(C)=O,6.39
17,OC(CC1CC12c1ccccc1-c1ncccc12)(c1ccccc1)c1ccccc1 (stereo not shown),-4.74
18,CN(C(=O)COc1ccc2ccc(=O)oc2c1)C1CCS(=O)(=O)C1 (stereo not shown),19.8
19,O=C(c1cnn2c(C(F)F)cc(-c3ccccc3)nc12)N1CCN(Cc2ccc3c(c2)OCO3)CC1,-21.3
20,CCOC(=O)Cc1csc(NS(=O)(=O)c2cccc([N+](=O)[O-])c2)n1,13.1
21,CC(C)c1cc(C(=O)N/N=C/c2ccco2)n[nH]1,-4.15
